{
  "sequences": {"note": "Protein sequences, listed by entry. Tags and fused reporters are not part of them.", "UniProt P46737": "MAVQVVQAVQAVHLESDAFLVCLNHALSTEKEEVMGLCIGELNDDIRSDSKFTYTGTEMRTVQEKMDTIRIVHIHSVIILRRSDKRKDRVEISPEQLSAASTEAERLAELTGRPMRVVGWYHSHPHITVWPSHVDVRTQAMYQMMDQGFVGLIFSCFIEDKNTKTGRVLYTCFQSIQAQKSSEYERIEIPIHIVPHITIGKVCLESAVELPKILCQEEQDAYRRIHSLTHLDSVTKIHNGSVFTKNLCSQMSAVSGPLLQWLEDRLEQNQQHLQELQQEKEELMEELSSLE", "UniProt Q80V62": "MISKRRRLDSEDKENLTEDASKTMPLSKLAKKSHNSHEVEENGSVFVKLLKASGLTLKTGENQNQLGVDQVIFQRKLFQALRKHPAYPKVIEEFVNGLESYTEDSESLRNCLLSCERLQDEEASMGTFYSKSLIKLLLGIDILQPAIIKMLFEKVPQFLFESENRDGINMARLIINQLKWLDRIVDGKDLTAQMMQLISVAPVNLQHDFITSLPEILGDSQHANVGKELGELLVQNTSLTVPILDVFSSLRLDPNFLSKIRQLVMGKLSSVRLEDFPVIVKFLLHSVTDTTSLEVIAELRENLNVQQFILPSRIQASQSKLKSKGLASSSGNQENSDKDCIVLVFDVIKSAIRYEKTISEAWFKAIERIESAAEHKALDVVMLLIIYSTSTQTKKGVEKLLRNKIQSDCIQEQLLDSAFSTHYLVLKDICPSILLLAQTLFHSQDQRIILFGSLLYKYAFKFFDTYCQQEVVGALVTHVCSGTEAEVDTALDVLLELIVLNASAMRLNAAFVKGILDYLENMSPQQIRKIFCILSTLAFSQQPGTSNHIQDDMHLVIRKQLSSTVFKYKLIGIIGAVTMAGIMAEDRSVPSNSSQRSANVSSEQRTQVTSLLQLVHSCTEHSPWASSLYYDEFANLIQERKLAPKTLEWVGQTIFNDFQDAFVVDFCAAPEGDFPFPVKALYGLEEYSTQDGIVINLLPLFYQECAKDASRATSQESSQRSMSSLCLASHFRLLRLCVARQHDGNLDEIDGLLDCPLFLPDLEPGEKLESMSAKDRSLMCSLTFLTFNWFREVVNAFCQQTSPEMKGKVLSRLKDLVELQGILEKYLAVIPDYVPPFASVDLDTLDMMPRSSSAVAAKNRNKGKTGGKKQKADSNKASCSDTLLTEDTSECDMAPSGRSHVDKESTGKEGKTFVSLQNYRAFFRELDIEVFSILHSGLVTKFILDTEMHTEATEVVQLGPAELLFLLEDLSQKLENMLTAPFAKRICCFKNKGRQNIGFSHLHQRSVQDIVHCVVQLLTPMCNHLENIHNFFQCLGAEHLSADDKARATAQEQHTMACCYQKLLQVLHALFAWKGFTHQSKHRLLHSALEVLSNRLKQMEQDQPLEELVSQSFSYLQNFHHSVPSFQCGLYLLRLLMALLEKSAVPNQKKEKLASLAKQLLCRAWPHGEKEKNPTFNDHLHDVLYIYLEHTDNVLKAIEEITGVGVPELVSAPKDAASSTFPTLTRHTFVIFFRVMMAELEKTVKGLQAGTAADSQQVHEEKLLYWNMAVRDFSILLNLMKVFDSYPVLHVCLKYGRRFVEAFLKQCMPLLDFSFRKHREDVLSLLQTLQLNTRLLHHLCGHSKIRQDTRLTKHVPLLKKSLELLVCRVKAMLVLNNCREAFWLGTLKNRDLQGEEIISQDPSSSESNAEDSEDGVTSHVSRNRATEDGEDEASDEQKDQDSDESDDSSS", "UniProt P48754": "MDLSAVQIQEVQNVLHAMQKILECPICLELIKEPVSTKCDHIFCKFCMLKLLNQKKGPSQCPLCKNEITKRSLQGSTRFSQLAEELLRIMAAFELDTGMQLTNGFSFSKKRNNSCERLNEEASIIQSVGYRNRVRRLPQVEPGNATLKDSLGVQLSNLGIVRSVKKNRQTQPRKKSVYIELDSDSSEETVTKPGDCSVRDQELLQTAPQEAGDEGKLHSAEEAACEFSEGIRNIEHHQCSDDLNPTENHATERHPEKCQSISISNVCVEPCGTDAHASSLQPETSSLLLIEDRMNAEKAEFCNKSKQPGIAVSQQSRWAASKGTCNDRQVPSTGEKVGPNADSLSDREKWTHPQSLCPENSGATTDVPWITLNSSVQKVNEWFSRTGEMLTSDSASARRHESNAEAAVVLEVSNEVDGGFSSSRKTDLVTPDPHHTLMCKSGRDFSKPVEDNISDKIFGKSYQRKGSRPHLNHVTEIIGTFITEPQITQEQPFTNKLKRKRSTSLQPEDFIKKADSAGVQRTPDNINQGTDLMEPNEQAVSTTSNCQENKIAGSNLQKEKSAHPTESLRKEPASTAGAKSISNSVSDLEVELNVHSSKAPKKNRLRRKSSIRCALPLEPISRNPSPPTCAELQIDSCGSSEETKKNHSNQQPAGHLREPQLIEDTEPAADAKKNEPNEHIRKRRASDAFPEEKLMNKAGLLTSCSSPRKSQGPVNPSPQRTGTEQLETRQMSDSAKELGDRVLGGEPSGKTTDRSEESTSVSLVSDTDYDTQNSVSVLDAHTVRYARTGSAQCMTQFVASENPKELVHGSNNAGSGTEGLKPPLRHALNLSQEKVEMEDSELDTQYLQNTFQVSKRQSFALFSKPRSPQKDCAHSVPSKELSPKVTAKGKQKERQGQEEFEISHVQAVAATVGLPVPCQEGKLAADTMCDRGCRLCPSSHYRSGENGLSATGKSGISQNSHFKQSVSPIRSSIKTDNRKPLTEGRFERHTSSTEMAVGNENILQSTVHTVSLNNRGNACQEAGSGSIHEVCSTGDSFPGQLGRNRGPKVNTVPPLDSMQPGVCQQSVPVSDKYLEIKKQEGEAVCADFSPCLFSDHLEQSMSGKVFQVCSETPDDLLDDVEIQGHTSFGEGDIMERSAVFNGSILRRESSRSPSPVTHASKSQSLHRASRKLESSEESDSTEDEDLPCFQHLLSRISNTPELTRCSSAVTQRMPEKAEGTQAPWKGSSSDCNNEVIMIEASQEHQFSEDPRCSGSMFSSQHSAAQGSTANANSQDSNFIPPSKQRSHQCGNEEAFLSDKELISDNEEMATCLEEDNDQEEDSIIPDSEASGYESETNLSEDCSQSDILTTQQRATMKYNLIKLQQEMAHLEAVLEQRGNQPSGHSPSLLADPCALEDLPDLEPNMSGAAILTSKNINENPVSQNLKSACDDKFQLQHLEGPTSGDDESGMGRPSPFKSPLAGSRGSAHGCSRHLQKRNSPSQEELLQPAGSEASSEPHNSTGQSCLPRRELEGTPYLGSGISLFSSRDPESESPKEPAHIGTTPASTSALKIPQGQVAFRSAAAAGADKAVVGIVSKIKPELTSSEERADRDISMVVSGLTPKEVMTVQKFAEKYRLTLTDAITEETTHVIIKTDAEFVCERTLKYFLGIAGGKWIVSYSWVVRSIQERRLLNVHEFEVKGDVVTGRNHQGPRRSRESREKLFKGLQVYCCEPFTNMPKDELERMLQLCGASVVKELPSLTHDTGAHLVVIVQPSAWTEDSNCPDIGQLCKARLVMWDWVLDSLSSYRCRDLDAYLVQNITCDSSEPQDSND"},
  "source": "paper PMC3579931",
  "molecules": {"B1": {"name": "FANCL (Fanconi anemia complementation group L) (protein, UniProt Q9CR14 1-375)", "chain": "MDEAEASLLRHFPLLLPQNREKTVYEGFISAQGSDFHLRIVLPKDLQLKKARLLCSLQLKNILNEYHQVVQQRMKHSPDLMSFMMELKMILEVALKNKQELCVQPPSCSFCKDLLTEIGAIGWDKLACVESSFSTIKLKADDASGRKHLITVKLKAKYPVEPPDCVVDFPVPFSVSWTPQSSLVDVYSQFLVALETLKVFWDVMDEIDEKTWVLEPEKPPRSATARRIALGKNVSIAIEVDPRHPTMLPEFCFLGADHVTKPLGMKLSGSIHLWDPENSLLQNLKDVLEIDFPARSILEESDFSMDCGICYARHLNGAIPDQVCNNPQCGQPFHEICLYEWLRGLSTSRQSFNVFFGDCPYCSKPITLKMSGRKP"}, "B2": {"name": "Gametogenetin isoform GGN1 (protein, UniProt Q80WJ1-1 1-673)", "chain": "MGNVQSEPSAGGGSRKEQASDRASDSRRTPLVEPEVTPSSPAMRLARGLGVWFPGSSGPPGLLIPPEPQASSSPLPLTLELPSPVTPPPEEAAAVSTPPPPPVGTLLPAPSKWRKPTGTSVPRIRGLLEASHRGQGDPPSLRPLPPLPRQLTEKDPVLRAPAPPPTPLEPRKQLPPAPSTCDPQPLSRRITLASSATSPTESQVRHSSEGQAAGGAHGGVPPQAGEGEMARSATSESGLSLLCKVTFKSGPHLSPTSASGPLAAKASPGAGGGGLFASSGAISYAEVLKQGPQPPGATRPLGEVPPGATRPLGEVPRAAQETEGGDGDGEGCSGPPSVPAPLARALPPPPYTTFPGSKPKFDWVSPPDGTERHFRFNGAVGGIGAPRRRTTTLSGPWGSPPPRSGQTHPSSGPRRPTPALLAPPMFIFPAPNNGEPVRPVPPSPQQIPPLPPPPPTPPATPPPAPPPTPQPPALPRTPILVARPPTPGPGHLESALAPTPPSTLSPTAAADQVPAATPATVTSQVPATATAELSPPMPQPKTRTRRNKGPRAARGVIREEGTSGDGPREPNTAPVTDSSSGGGGGGSNGTSTAGASNKGTARHWPPFEVLNSCPCKCYCRHQRRHRRLPRNVSAWLSTPTNHLSEPPWVATVKLAGSLVAGLEHYDLQATHST"}, "B3": {"name": "FANCA (protein, UniProt Q9JL70 1-1439)", "chain": "MPGSPARGAAMGGGPRGLRKTWTELLAGRVKKQKYDPEREQKLKDSALKLLRYHQNMHDLLLEVEEPQCKRLRLSELIDRDSADASSDRSASFIRSAFRDQASRLGVPVGVLSAKVFARSVQQVCVEPSHPVLLSPEQSKKLSSLLMIARHLLAQNMFSRLTFCQELWKAQNSLLLEAMWRLHTHSVVSLQELLQSHPDSEAMAMWLFRNLRSLCEQIGASCPSPDTTEAMLSGLVQLLISRGFQGSSDPRRLVEPERLPQVATDVLQRMLAFSLDTLEADPQTTLDCQAVSGWIPIYSGHTCCGVVTENSLKSFFSHTLTQILTHKPVLKVSDAIQMQKEWSFAKTHHLLTDLHCRVLATLGPEESVGRLQEVLEMQEVNWQHVLSCVSTLVVCFPEAQQLVKGWVASLMARAFESYHLDSMVTAFLIVRQATLEGPYVFPSYADWFKESFGSSHGYHSCSKKTLVFLFKFLSDLVPWEAPRYMQVHIFHPPLVPSKYHSLLTDYISLAKTRLADLKVSLENVGLYEDLSSPGDIAERESQAVQDVKKAIMVFEQTGKIPMPVLEASIFRRPYYVSHFLPTLLAPRVLPEVPDPRVALIETLKRADKIPSSIYDAYRKACASAEKQQPENATSAQRTEADCAKEPLGLLTAALEELRALMTDPTQYSVISAQVAVVSEKLNAVLGHRNDGGSLQRAKIQLSVLPSTLQKQDQAVVDLLLTAFCQNLMAASSFVPPERQSPWAVLFVRTLCGHVLLPAVLTRLRQLLRHQGQSLSTSHVLGLAALAVHLGECRSMLPEVDPDVLAPSAGSLCVPDFLNSLLTCRTRDSLLFCMNFCTAAVSYCLCKFSALRNCLSPGLIKKFQFVVLRLFPEARAPCAPEHAACVPWRPLYLPSADWQRAALSLWRRDSFQELLKDKEFYLTYRDWVQLELEIQPEADVLSDMERHDFHQWAIYERYLPAPTALGGCGGDLEEACTVLVSEIMDFHQSSRSYNHSEDSDLVLGGRTGNKDILSRLQEIALDLELDQGSAVPHGCSTPQSHFLFRVFRRRLQALARPDSMATSLRRQQELLTCKRLLLCLPPSVLVGGPQAGQPISPNCGEFFSLVNSELRNFCCHGSVLTSDITIHFFRGLLRVCLRSQDPALVANQTLTECQTKCPVILTSALLWWSSLEPVLCGRWMRCYQSPLPRELRRLQEAREFASNFASASASPAPSPAWIAAAALHFAWRGVRKEDVTAHLQRLDCQREELLIALFFFSLMGLLSSYLTQRDTAEHLKAVDICAEVLTCLERRKVSWLVLFQLTEKDAKLGHLLHLAPDQHTRLLPLAFYSLLSCFSEGAAVREAAFLHVAVDMYLKLLQLFVDGETRLQGHSESQGSPVQLITKARVFLLQLIPQCPKQCFSNMTELLAGRGDCDPEVSNALRQRQQADPSFDLYQEPQLF"}, "B4": {"name": "FANCI (protein, UniProt Q8K368 1-1330)", "chain": "MDLKILSLATDKTTDKLQEFLQTLKDDDLASLLQNQAVKGRAVGTLLRAVLKGSPCSEEDGALRRYKIYSCCIQLVESGDLQQDVASEIIGLLMLEVHHFPGPLLVDLASDFVGAVREDRLVNGKSLELLPIILTALATKKEVLACGKGDLNGEEYKRQLIDTLCSVRWPQRYMIQLTSVFKDVCLTPEEMNLVVAKVLTMFSKLNLQEIPPLVYQLLVLSSKGSRRSVLDGIIAFFRELDKQHREEQSSDELSELITAPADELYHVEGTVILHIVFAIKLDCELGRELLKHLKAGQQGDPSKCLCPFSIALLLSLTRIQRFEEQVFDLLKTSVVKSFKDLQLLQGSKFLQTLVPQRTCVSTMILEVVRNSVHSWDHVTQGLIEFGFILMDSYGPKKILDGKAVEIGTSLSKMTNQHACKLGANILLETFKIHEMIRQEILEQVLNRVVTRTSSPINHFLDLFSDIIMYAPLILQNCSKVTETFDYLTFLPLQTVQGLLKAVQPLLKISMSMRDSLILVLRKAMFASQLDARKSAVAGFLLLLKNFKVLGSLPSSQCTQSIGVTQVRVDVHSRYSAVANETFCLEIIDSLKRSLGQQADIRLMLYDGFYDVLRRNSQLASSIMQTLFSQLKQFYEPEPDLLPPLKLGACVLTQGSQIFLQEPLDHLLSCIQHCLAWYKSRVVPLQQGDEGEEEEEELYSELDDMLESITVRMIKSELEDFELDKSADFSQNTNVGIKNNICACLIMGVCEVLMEYNFSISNFSKSKFEEILSLFTCYKKFSDILSEKAGKGKAKMTSKVSDSLLSLKFVSDLLTALFRDSIQSHEESLSVLRSSGEFMHYAVNVTLQKIQQLIRTGHVSGPDGQNPDKIFQNLCDITRVLLWRYTSIPTSVEESGKKEKGKSISLLCLEGLQKTFSVVLQFYQPKVQQFLQALDVMGTEEEEAGVTVTQRASFQIRQFQRSLLNLLSSEEDDFNSKEALLLIAVLSTLSRLLEPTSPQFVQMLSWTSKICKEYSQEDASFCKSLMNLFFSLHVLYKSPVTLLRDLSQDIHGQLGDIDQDVEIEKTDHFAVVNLRTAAPTVCLLVLSQAEKVLEEVDWLIAKIKGSANQETLSDKVTPEDASSQAVPPTLLIEKAIVMQLGTLVTFFHELVQTALPSGSCVDTLLKGLSKIYSTLTAFVKYYLQVCQSSRGIPNTVEKLVKLSGSHLTPVCYSFISYVQNKSSDAPKCSEKEKAAVSTTMAKVLRETKPIPNLVFAIEQYEKFLIQLSKKSKVNLMQHMKLSTSRDFKIKGSVLDMVLREDEEDENEEGTASAHTQQDREPAKKRRKKCLS"}},
  "key": {"[1]": {"target": "T1, Gametogenetin isoform GGN1 (mouse (endogenous in testis)) (UniProt Q80WJ1)", "T1 sequence": "B2 chain", "assay": "co-IP; goat GGN1 antibody conjugated to resin (AminoLink Plus), control goat IgG column; 4 mg postnatal day 20 mouse testis extract (50 mM Tris-HCl, 150 mM NaCl, 1% NP-40, 2 mM MgCl2, benzonase), overnight at 4°C; washed with PBS, eluted with 0.1 M glycine pH 2.7; immunoblot of eluates"}, "[2]": {"target": "T1, Gametogenetin isoform GGN1 (mouse (endogenous in testis))", "assay": "co-IP; goat GGN1 antibody conjugated to resin (AminoLink Plus), control goat IgG column; 4 mg postnatal day 20 mouse testis extract (50 mM Tris-HCl, 150 mM NaCl, 1% NP-40, 2 mM MgCl2, benzonase), overnight at 4°C; washed with PBS, eluted with 0.1 M glycine pH 2.7; immunoblot of eluates", "remark": "listed apart in the source"}, "[3]": {"target": "BRCC36 (BRCA1/BRCA2-containing complex, subunit 3) (mouse (endogenous in testis)) (UniProt P46737)", "assay": "co-IP; reciprocal IP: BRCC36 antibody column, mouse testis extract, done as the GGN1 IP; immunoblot for GGN1"}},
  "note": "Where two headings read alike, the source gives them in different places. These are yes or no findings as the source states them, for the method shown. Binding seen in cells or lysates may run through a third protein. Some results given as binding are weak or reduced against the parent protein; the word gives no strength.",
  "data": [
    {"molecule": "BRCC36 (BRCA1/BRCA2-containing complex, subunit 3) (from UniProt P46737 1-291)", "values": [
      {"measurement": "binding", "setting": "[1]", "result": "binds"}
    ]},
    {"molecule": "FANCD2 (from UniProt Q80V62 1-1450)", "values": [
      {"measurement": "binding", "setting": "[1]", "result": "binds"}
    ]},
    {"molecule": "BRCA1 (from UniProt P48754 1-1812)", "values": [
      {"measurement": "binding", "setting": "[1]", "result": "no binding"}
    ]},
    {"molecule": "B1", "values": [
      {"measurement": "binding", "setting": "[2]", "result": "binds"}
    ]},
    {"molecule": "B2", "values": [
      {"measurement": "binding", "setting": "[3]", "result": "binds"}
    ]},
    {"molecule": "B3", "values": [
      {"measurement": "binding", "setting": "[2]", "result": "no binding"}
    ]},
    {"molecule": "B4", "values": [
      {"measurement": "binding", "setting": "[2]", "result": "no binding"}
    ]}
  ]
}
